In test [1] the target is T1, HA-DHX29a [1-530 aa] (human) (UniProt Q7Z478).
T1 sequence: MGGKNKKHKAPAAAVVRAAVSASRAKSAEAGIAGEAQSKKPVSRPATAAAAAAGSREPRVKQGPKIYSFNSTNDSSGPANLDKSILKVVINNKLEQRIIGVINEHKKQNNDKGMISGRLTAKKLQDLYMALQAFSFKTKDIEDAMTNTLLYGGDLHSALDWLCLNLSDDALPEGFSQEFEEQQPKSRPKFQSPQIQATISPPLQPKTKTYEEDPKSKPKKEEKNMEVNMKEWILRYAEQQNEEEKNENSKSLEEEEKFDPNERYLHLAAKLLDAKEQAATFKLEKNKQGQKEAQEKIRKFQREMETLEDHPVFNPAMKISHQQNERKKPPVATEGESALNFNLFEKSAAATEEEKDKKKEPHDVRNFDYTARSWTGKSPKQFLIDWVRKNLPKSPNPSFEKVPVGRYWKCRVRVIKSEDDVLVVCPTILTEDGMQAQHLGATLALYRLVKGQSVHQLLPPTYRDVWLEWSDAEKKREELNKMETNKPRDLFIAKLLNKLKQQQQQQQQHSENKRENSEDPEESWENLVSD
As to the kind of experiment: co-IP; 293T cells cotransfected; whole cell lysates immunoprecipitated with anti-HA beads, immunoblotted with anti-Flag (Fig 5A, Fig 6A); also in RIG-I knockout 293T cells (S5D Fig). (A western blot detects proteins with antibodies after separation by electrophoresis.)

By UniProt entry, the sequences of proteins in these tests, tags left out.
UniProt Q7Z434: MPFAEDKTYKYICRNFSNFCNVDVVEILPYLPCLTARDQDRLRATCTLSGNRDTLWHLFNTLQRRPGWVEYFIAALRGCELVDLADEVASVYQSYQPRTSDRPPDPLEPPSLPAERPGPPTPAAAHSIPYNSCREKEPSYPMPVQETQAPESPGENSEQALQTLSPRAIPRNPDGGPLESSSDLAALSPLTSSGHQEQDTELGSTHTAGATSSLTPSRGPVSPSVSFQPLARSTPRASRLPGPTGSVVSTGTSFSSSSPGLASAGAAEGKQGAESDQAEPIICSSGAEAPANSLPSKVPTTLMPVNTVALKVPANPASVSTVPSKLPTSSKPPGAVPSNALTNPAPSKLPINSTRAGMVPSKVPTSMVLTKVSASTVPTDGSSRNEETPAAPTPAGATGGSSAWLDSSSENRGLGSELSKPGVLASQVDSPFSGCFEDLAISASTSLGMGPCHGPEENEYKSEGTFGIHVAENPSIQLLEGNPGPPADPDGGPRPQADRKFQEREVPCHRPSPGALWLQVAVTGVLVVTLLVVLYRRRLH

The target in test [2] is T2, HA-DHX29b [1-830 aa] (human) (UniProt Q7Z478).
T2 sequence: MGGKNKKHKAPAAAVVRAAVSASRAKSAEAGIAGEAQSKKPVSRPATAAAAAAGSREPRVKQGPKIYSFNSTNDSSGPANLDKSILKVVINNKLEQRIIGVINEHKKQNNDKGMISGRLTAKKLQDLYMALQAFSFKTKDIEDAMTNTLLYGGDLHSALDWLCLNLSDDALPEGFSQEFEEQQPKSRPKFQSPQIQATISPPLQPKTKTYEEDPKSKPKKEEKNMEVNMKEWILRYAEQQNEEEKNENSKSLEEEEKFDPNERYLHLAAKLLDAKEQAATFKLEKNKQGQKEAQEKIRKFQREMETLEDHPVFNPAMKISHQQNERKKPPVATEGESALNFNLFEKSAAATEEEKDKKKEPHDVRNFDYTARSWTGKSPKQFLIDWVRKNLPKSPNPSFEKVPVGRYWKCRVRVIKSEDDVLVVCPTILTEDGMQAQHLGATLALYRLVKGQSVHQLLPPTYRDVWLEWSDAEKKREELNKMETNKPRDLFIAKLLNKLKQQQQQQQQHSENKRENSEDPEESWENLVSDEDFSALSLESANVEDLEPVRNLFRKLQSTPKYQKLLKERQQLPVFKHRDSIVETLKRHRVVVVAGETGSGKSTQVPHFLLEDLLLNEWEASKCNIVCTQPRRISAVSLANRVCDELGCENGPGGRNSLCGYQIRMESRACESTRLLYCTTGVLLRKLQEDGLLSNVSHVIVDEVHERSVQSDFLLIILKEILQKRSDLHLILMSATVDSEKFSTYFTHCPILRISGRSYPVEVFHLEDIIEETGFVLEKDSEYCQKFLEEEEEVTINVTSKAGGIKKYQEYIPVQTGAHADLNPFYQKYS
The description is as above.

For test [3], the target named is T3, HA-DHX29d [830-1369 aa] (human) (UniProt Q7Z478).
T3 sequence: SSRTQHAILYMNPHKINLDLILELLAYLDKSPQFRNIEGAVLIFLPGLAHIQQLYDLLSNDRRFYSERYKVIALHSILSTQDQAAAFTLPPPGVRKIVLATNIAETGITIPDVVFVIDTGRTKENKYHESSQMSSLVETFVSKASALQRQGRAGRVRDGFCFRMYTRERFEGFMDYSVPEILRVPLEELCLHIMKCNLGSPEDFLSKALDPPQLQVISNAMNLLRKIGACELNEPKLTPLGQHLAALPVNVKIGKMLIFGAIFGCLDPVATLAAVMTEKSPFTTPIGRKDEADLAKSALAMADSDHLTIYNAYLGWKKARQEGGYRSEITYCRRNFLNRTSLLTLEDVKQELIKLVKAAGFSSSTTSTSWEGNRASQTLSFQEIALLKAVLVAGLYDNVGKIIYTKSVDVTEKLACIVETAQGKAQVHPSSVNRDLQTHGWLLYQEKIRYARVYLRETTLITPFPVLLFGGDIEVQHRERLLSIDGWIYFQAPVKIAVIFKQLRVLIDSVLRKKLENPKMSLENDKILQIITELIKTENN
Described as above.

For test [4], the target named is Flag-MAVS (UniProt Q7Z434). The test is described as follows: co-IP; 293T cells expressing Flag-MAVS and Flag-MDA5 (as the legend prints), DHX29 siRNA or scrambled siRNA, stimulated with intracellular HMW Poly(I:C); immunoprecipitated with anti-HA antibody, immunoblotted with anti-HA and anti-Flag.

We go through one molecule from PMC5834211.

Results are given in words; binding and its absence hold for the method and conditions named. In cells and extracts the contact can be indirect. Some results given as binding are weak or reduced against the parent protein; the word gives no strength. Tags and fused reporters may be left off the sequences shown.

B1: Flag-MDA5 (full-length, FL-MDA5) (protein, UniProt Q9BYX4 1-1025)
chain: MSNGYSTDENFRYLISCFRARVKMYIQVEPVLDYLTFLPAEVKEQIQRTVATSGNMQAVELLLSTLEKGVWHLGWTREFVEALRRTGSPLAARYMNPELTDLPSPSFENAHDEYLQLLNLLQPTLVDKLLVRDVLDKCMEEELLTIEDRNRIAAAENNGNESGVRELLKRIVQKENWFSAFLNVLRQTGNNELVQELTGSDCSESNAEIENLSQVDGPQVEEQLLSTTVQPNLEKEVWGMENNSSESSFADSSVVSESDTSLAEGSVSCLDESLGHNSNMGSDSGTMGSDSDEENVAARASPEPELQLRPYQMEVAQPALEGKNIIICLPTGSGKTRVAVYIAKDHLDKKKKASEPGKVIVLVNKVLLVEQLFRKEFQPFLKKWYRVIGLSGDTQLKISFPEVVKSCDIIISTAQILENSLLNLENGEDAGVQLSDFSLIIIDECHHTNKEAVYNNIMRHYLMQKLKNNRLKKENKPVIPLPQILGLTASPGVGGATKQAKAEEHILKLCANLDAFTIKTVKENLDQLKNQIQEPCKKFAIADATREDPFKEKLLEIMTRIQTYCQMSPMSDFGTQPYEQWAIQMEKKAAKEGNRKERVCAEHLRKYNEALQINDTIRMIDAYTHLETFYNEEKDKKFAVIEDDSDEGGDDEYCDGDEDEDDLKKPLKLDETDRFLMTLFFENNKMLKRLAENPEYENEKLTKLRNTIMEQYTRTEESARGIIFTKTRQSAYALSQWITENEKFAEVGVKAHHLIGAGHSSEFKPMTQNEQKEVISKFRTGKINLLIATTVAEEGLDIKECNIVIRYGLVTNEIAMVQARGRARADESTYVLVAHSGSGVIEHETVNDFREKMMYKAIHCVQNMKPEEYAHKILELQMQSIMEKKMKTKRNIAKHYKNNPSLITFLCKNCSVLACSGEDIHVIEKMHHVNMTPEFKELYIVRENKALQKKCADYQINGEIICKCGQAWGTMMVHKGLDLPCLKIRNFVVVFKNNSTKKQYKKWVELPITFPNLDYSECCLFSDED
In the case of B1, the binding entry in test [1] was “binds”; in test [2] it was “binds”; in test [3] it was “no binding”; in test [4] it was “binds”.
